# Source: PubChem BioAssay AID686970 (National Center for Advancing Translational Sciences (NCATS), 2013)
# In all, about 360,000 compounds went through this assay and about 6,000 (1.7%) were called active. This list was built around the results that the source calls inconclusive (neither active nor inactive); the mix of calls is not that of the screen. Calls follow the shape of the dose curve; as a rule, active = well fitted cell-killing curve with a large enough effect; inconclusive = small, poorly fitted or top-dose-only effect, or effect the other way; inactive = flat fitted curve, though single readings scatter. Potencies of inconclusive entries are left out as doubtful fits.
# Test: qHTS for induction of synthetic lethality in tumor cells producing 2HG: qHTS for the HT-1080-NT fibrosarcoma cell line;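 also: NT is the 2HG producing partner of a matched IDH1 knockdown line; nearly all actives have a fitted effect of over 55% in size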;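 as to activity, negative = less viability: 0% = DMSO-treated cells and -100% = media-only wells without cells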
# Settings: HT-1080-NT fibrosarcoma viability, CellTiter-Glo ATP luminescence, 48 h; activity, negative = less viability: at 46.1 µM (top of the series) unless noted
# Summary of the method: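 Toxicity toward the 2HG-producing NT line was scored as %Activity, normalised to DMSO and no-cell wells, from CellTiter-Glo luminescence after 48 hours' treatment.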
# Potency is read from the fitted curve at half-maximal effect; tags tell the direction and shape of the fitted curve.
Structure (SMILES),Potency,"activity, negative = less viability"
Cc1cc(NC(=S)NC(=O)CC(C)C)ccc1Br,"inconclusive [cytotoxic, single point]",–
O=C(NCC(O)CO)c1ccc2[nH]c3ccccc3c2c1 (stereo unspecified),inactive,–
CCCn1c(SCC(=O)Nc2ccccc2OC)nnc1-c1ccco1,active: 16.4 µM,–
C=CCOc1nc2c(c(=O)n(C)c(=O)n2C)n1Cc1c(Cl)cccc1Cl,inactive,–
CCCCCCCCCCCCCC(=O)NO,"inconclusive [cytotoxic, single point]",–
CCOC(=O)[C@]12CCC=C1N(Cc1ccc3c(c1)OCO3)C(=O)[C@H](CC(=O)NCc1cccc(C(F)(F)F)c1)C2,"inconclusive [cytotoxic, single point]",–
O=C(NC(=S)Nc1ccc(Cl)cc1)c1ccccc1,"inconclusive [rising, single point]",–
CCOc1cc(CNC(C)(C)CO)cc(Br)c1OCc1ccc(Cl)cc1Cl,active: 11.2 µM,–
CN(C)S(=O)(=O)c1ccc(-c2csc(N/N=C/c3ccc(O)cc3)n2)cc1,active: 9.2 µM,–
CCN1CCN(c2cc(C)c3cc(NC(=O)c4cc(OC)cc(OC)c4)ccc3n2)CC1,"inconclusive [cytotoxic, single point]",–
CN(C)c1ccc(-c2nnn(CC(=O)N3c4ccccc4CCc4ccccc43)n2)cc1,inactive,–
c1ccc(Cn2nnnc2C(c2cccs2)N2CCc3ccccc3C2)cc1 (stereo unspecified),"inconclusive [cytotoxic, single point]",–
O=S(Cc1cc(Sc2ccccc2)nc(-c2ccccc2)n1)c1ccccc1 (stereo unspecified),"inconclusive [cytotoxic, single point]",–
O=C(Nc1cc(Cl)ccc1C(=O)O)c1ccc(CN2C(=O)c3ccccc3C2=O)cc1,–,inconclusive: -24.1% [cytotoxic]
COc1ccc2cc(/C=N/NC(=O)c3ccc(CN(c4ccc(C)c(C)c4)S(C)(=O)=O)cc3)c(Cl)nc2c1,"inconclusive [cytotoxic, full curve, poor fit]",–
Cc1cccc(OCCNc2ccc(C(F)(F)F)cc2[N+](=O)[O-])c1,inactive,–
N#CC(C#N)=Cc1ccc(NC(=O)c2ccc(Br)cc2)cc1,inactive,–
NNC(=O)c1ccc(Cn2cc(Br)cn2)o1,inactive,–
Cc1cc(Br)cn2c(Cc3ccsc3)c(-c3ccc(Cl)cc3)nc12,"inconclusive [cytotoxic, partial curve]",–
COc1cccc(NC(=O)c2ccc(N3C(=O)C4CCC(C)CC4C3=O)cc2)c1 (stereo unspecified),–,inconclusive: -29.1% [cytotoxic]
COC(=O)C1=C(C)N(Cc2ccccc2)C(=NCc2cccc(C(F)(F)F)c2)N[C@H]1c1cccc(C(F)(F)F)c1,"inconclusive [cytotoxic, single point]",–
